Assay [1] deals with Flag-tagged full-length Mdm2 (human, UniProt Q00987). The experiment in a line: ELISA. For orientation: ELISA stands for enzyme-linked immunosorbent assay.
Assay [2] has as its target GST-Mdm2(10–139) (human, UniProt Q00987 10-139). The experiment in a line: native gel or EMSA.
Assay [3] addresses untagged Mdm2(10–139) (human, UniProt Q00987 10-139). The experiment in a line: ELISA.

B1: p53-CTD([…]) peptide (peptide)
peptide: not shown
Consider B1, for which the binding result in assay [1] and in assay [2] was “binds” throughout.

B2: His-tagged p53(ΔC30) purified from bacteria (domain or fragment)
chain: not shown
In the case of B2, in assay [1], the binding result was “binds”.

B3: p53-TAD-I([…]) peptide (peptide)
peptide: not shown
Usually IC50 stands for the point on the concentration scale where inhibition reaches its midpoint. A higher IC50 goes with weaker potency in that assay. B3: in assay [3], the IC50 was around 1 µM.
